According to article PMC4336329 (PLoS ONE, 2015):
In all, about 310,000 compounds went through this assay and about 14,000 (4.5%) showed an effect of 50% or more. The effect is printed as a negative number. The list shows a part of the results.

molecular target: human ether-à-go-go-related gene (hERG) potassium channel (human, UniProt Q12809); test: primary screen, population patch clamp on CHO cells stably expressing hERG
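Note: peak tail current of the secondary pulse compared with the same well before compound.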

Chain of human ether-à-go-go-related gene (hERG) potassium channel (Q12809 whole entry, looked up): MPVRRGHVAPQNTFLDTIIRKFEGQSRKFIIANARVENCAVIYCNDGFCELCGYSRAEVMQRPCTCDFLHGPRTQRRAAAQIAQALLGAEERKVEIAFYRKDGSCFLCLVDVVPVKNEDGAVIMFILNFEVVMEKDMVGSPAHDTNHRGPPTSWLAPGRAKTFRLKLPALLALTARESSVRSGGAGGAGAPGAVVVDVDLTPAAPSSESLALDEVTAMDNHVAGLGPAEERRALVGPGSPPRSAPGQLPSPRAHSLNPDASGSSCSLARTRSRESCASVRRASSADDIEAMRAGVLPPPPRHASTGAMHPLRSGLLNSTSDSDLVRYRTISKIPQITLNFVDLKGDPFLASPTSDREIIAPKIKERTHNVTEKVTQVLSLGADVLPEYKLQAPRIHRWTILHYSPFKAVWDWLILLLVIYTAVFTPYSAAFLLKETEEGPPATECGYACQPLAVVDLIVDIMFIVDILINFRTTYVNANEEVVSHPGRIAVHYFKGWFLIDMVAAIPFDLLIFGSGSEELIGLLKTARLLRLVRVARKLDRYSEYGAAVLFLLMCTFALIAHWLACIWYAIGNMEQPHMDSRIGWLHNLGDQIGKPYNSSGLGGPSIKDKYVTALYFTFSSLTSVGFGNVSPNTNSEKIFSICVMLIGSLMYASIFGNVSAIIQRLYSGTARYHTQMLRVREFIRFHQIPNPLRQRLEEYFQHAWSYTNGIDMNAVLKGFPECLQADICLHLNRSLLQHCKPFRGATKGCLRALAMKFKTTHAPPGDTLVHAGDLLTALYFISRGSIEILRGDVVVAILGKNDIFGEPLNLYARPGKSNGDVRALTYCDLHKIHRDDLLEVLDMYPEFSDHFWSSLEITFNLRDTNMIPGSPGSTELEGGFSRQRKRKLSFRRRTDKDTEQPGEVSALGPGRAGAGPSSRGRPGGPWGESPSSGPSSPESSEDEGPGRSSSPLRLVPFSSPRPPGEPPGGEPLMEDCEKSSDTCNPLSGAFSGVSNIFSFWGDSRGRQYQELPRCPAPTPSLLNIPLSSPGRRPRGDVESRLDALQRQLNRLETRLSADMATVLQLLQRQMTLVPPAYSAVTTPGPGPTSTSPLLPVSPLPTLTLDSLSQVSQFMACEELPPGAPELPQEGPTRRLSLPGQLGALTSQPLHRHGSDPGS

| Compound | hERG current change (%, negative = inhibition) at 10uM |
| --- | --- |
| CN(CC(=O)NCCN1CCOCC1)S(=O)(=O)c1ccc(F)cc1 | 2.88% |
| CCCCCn1c(=S)[nH]c2cc(C(=O)N3CCN(C(=O)OCC)CC3)ccc2c1=O | 6.31% |
| Cc1c(NC(=O)c2cc3c(s2)-c2ccccc2OC3)cccc1[N+](=O)[O-] | 6.38% |
| CCCCn1c(N)c(N(CCOC)C(=O)C2CCN(C(=O)c3ccc(F)cc3)CC2)c(=O)[nH]c1=O | 18.1% |
| COc1ccc(NC(=O)c2cc3ccccc3o/c2=N\NS(=O)(=O)c2ccc(C)cc2)cc1 | -13.6% |
| Cc1ccc(N(CC(=O)NC2CCCC2)C(=O)CCC(=O)Nc2ccccn2)cc1 | -18.2% |
| O=C(C1CCN(S(=O)(=O)c2cccc3cccnc23)CC1)N1CCN(c2ccc(Cl)cc2)CC1 | -42.9% |
| Cc1cn(CC(=O)c2ccccc2)c2ccccc12 | 4.66% |
| O=C(c1ccccc1)c1cnc(-c2ccccc2)s1 | 35.8% |
| CSc1cccc(NC(=O)Cn2cnc(S(=O)(=O)N3CCCC3)c2)c1 | 21.5% |
| Cl.O=C(CNCc1ccco1)Nc1ccccc1-n1cccc1 | 7.04% |
| COCCNC(=O)CN1C(=O)NC2(CCOc3ccccc32)C1=O (centres unmarked) | 22.6% |
| Cc1ccccc1OCC(=O)Nc1nnc(S(=O)(=O)N2CCCC2)s1 | 53.4% |
| Cn1ccsc1=NC(=O)c1ccccc1F | 14.6% |
| COc1cc(OC)cc(C(=O)N[C@H](C(=O)OCC(=O)Nc2cccnc2Cl)C(C)C)c1 | -2% |
| CC1Cc2ccccc2N1S(=O)(=O)c1cccc(C(=O)N2Cc3ccccc3CC2C(N)=O)c1 (centres unmarked) | -13.3% |
| CC1CCCCN1C(=O)c1cc(-c2ccc3c(c2)OCO3)on1 (centres unmarked) | -6.82% |
| COc1ccccc1OCc1cc(C(=O)NCc2ccc(N3CCCC3=O)cc2)no1 | 13.4% |
| COc1ccccc1C(=O)Nc1cccc(C(=O)N2CCOCC2)c1 | 19.8% |
| Cc1ccc(CN2CCN(Cc3cn[nH]c3-c3ccccc3)CC2CCO)o1 (centres unmarked) | -12.7% |
| O=C(c1ccc2c(c1)OCCO2)N1CCCCC1 | 12.8% |
| O=C(Nc1cc(Oc2ccccc2)cc([N+](=O)[O-])c1)C12CC3CC(C1)CC(n1cnc(Cl)n1)(C3)C2 | 13.9% |

| Compound | hERG current change (%, negative = inhibition) at 10uM |
| --- | --- |
| COc1ccc(CCN2CC(C(=O)NCCc3ccc(C(F)(F)F)cc3)CCC2=O)cc1 (centres unmarked) | -46.8% |
| NCCCC[C@H]1CN=C(N)N1CCc1cccc2ccccc12 | 1.08% |
| Cc1nc(-c2ccccc2OC(F)(F)F)[nH]c(=O)c1Cl | 7.36% |
| Fc1ccc(-c2csc3ncnc(Nc4ccc(N5CCOCC5)cc4)c23)cc1 | 17.6% |
| NC(=O)c1ccc(-c2nnc(Nc3ccc(S(N)(=O)=O)cc3)c3ccccc23)cc1 | 25.7% |
| Cc1ccccc1NC(=S)N(Cc1ccco1)C(C)c1ccccn1 (centres unmarked) | 9.25% |
| CC(=O)Nc1ccc2nc(-c3ccccc3)cn2c1 | 15.1% |
| O=C(NCc1ccc(F)cc1)C(c1ccccc1)N(C(=O)c1csnn1)C1CC1 (centres unmarked) | 11% |
| C=CCn1c(O)c(C(CC)=NCc2cc(OC)cc(OC)c2)c(=O)[nH]c1=O | -59% |
| COc1cc(C(=O)NCCOc2cc(C)ccc2C(C)C)cc(OC)c1OC | -12.6% |
| CC1CCN(CCNC(=O)CN(C)S(=O)(=O)c2cccc3nsnc23)CC1 | -14.4% |
| Cc1[nH]c(=S)c(C#N)c(C)c1Cc1ccccc1 | 12.1% |
| Cc1cc(=O)n(C(C)(C)C)c(=O)n1Cc1ccccc1 | 11% |
| CCOC(=O)C1CCN(C(=O)COc2ccc(S(=O)(=O)N3CCOCC3)cc2)CC1 | 8.96% |
| CCOC(=O)C1=C(C)N(c2ccc(OC)cc2)C(=O)/C1=C\c1ccc(O)c(OCC)c1 | 0.519% |
| CC(C(=O)O)N1C(=O)c2cccc3cccc1c23 (centres unmarked) | 1.97% |
| CC(=O)c1c(C)[nH]c(C(=O)Nc2ccccc2Cl)c1C | -7.38% |
| O=C1CC(c2cccnc2)c2cc3c(cc2N1)OCCO3 (centres unmarked) | 17.2% |
| Cc1ccc(C(C)C)cc1OCC(=O)NNC(=O)Nc1ccccc1 | 28.3% |
| COc1ccc(C)c(NC(=O)NCCc2cnc[nH]2)c1 | 12% |
| O=C(O)CCCCCN1C(=O)C(O)=C(C(=O)/C=C/c2ccccc2)C1c1cccc([N+](=O)[O-])c1 (centres unmarked) | 14.7% |
| Cc1cc2c(nn1)CCC/C2=N\O | 8.59% |

| Compound | hERG current change (%, negative = inhibition) at 10uM |
| --- | --- |
| CN(C)S(=O)(=O)c1cc(NC(=O)COC(=O)Cc2cccc3ccccc23)ccc1Cl | -2.25% |
| CCc1cccc(CC)c1NC(=O)COC(=O)CC1c2ccccc2CCN1S(=O)(=O)c1ccccc1 (centres unmarked) | -0.322% |
| COc1ccc(S(=O)(=O)N2CCN(C(=O)COc3ccccc3)CC2)cc1 | 13.5% |
| CCOC(=O)CN1C(=O)C(C)(C)Oc2ccc(C(=O)Nc3ccccc3OC)cc21 | -6.76% |
| CCOC(=O)N1CCN(CCC(=O)Nc2cccc(C)c2)CC1.Cl | 1.45% |
| COC(=O)c1nn(-c2ccccc2)c2nnc(Cc3ccc(C)cc3)c(=O)n12 | -7.66% |
| CCn1c(C)cc(/C=C2/NC(=O)N(c3ccccc3)C2=O)c1C | 18.3% |
| O=C(NN=C1CCCCCCC1)c1ccc2ccccc2n1 | -10.6% |
| COCCCNC(=S)N1CCC(NC(=O)Nc2ccc(C)cc2)CC1 | 16.1% |
| Cn1c(=O)c2sccc2n(Cc2ccc(Br)cc2)c1=O | 8.86% |
| COc1cccc(N/C=C/C(=O)c2ccc(OC)c(OC)c2)c1 | -2.77% |
| C/C=C(\C)C(=O)NCCN1C2=NC[C@H](Cc3ccccc3)N2C[C@@H]1Cc1ccc(OC)cc1 | -73.3% |
| CCc1cccc(C)c1NC(=O)CN(C)C1=NS(=O)(=O)c2ccccc21 | -2.57% |
| COc1ccc(NC(=O)NCc2ccccn2)cc1OC | 2.36% |
| CC(C)N=C1CC(C)(C)CC(=O)/C1=C(/O)CCCN1C(=O)c2ccccc2C1=O | -23.8% |
| CCOc1cccc(/C=C/c2cc(C(=O)O)c3ccccc3n2)c1OC | 28.8% |
| O=C(CCCCn1c(=S)[nH]c2ccsc2c1=O)NCc1ccc2c(c1)OCO2 | 24.7% |
| CC(=O)Nc1nc(SCc2ccc(Cl)cc2Cl)n[nH]1 | 16.4% |
| O=C(Nc1ccc(CN2CCOCC2)cc1)c1ccc(Cl)cc1Cl | -19% |
| Cc1ccc(C(=O)C(OC(=O)c2c(C)cc(=O)oc2C)c2ccccc2)cc1 (centres unmarked) | 30.4% |
| CC1=C(C#N)C(NC(=O)c2cccc(Cl)c2)(C(F)(F)F)C(=O)N1 (centres unmarked) | -3.79% |
| CCC(C)(C)n1nnnc1C(c1cccnc1)N1CCCc2ccccc21 (centres unmarked) | -19.6% |

| Compound | hERG current change (%, negative = inhibition) at 10uM |
| --- | --- |
| COC(=O)c1cn(C(=O)c2ccc(Br)o2)c2ccccc12 | 4.27% |
| COc1ccc(NC(=O)c2sc3nc(N4CCCC4)c4c(c3c2N)CC(C)(C)OC4)c(OC)c1 | 19.2% |
| N#Cc1ncc(-c2ccc3c(c2)OCCOCCOCCOCCO3)nc1C#N | -69% |
| COc1cc(Cl)c(C)cc1NC(=O)CSc1nnc(-c2ccccn2)n1Cc1ccco1 | -29.5% |
| CCOc1ccc(NC(=O)c2cc3c(C)nc4ccccc4c3o2)cc1 | 9.38% |
| Cc1ccc(S(=O)(=O)N2CCOCC2)cc1NC(=O)CSc1nnc2cc(C)c3ccccc3n12 | -61.8% |
| Cc1ccc[n+](CC(=O)Nc2ccc(Cl)c([N+](=O)[O-])c2)c1.[Cl-] | 7.66% |
| COc1ccc(-c2onc(C)c2-c2ccccc2)c(O)c1 | 10.9% |
| CC(C)(C)OC(=O)N1CCC(NC(=O)c2nc[nH]c2C(=O)N2CCc3ccccc3C2)CC1 | -22.9% |
| O=C(NNC(=O)C1CCCCC1)c1ccco1 | 10.6% |
| Cc1ccc(N2C(=O)C(Cc3ccccc3)NC2=S)cc1 (centres unmarked) | -6.4% |
| Cc1c(NC(=O)COC(=O)c2ccccc2Cl)c(=O)n(-c2ccccc2)n1C | -16.8% |
| CC(C#N)On1c(SC(C)C#N)nc2ccccc2c1=O (centres unmarked) | -19.6% |
| N=C1/C(=C\c2ccc(Br)o2)C(=O)N=C2SC(CC(=O)N3CCOCC3)=NN12 | 20.8% |
| CC1C/C(=N\NC(=O)c2ccc([N+](=O)[O-])cc2)CC(C)(C)C1 (centres unmarked) | -7.35% |
| COc1ccc(OC)c(S(=O)(=O)NCC(c2ccco2)N2CCc3ccccc32)c1 (centres unmarked) | -18% |
| CCC(CC)C(=O)NCCc1cc2ccc(C)cc2[nH]c1=O | 13.2% |
| COc1ccc(C(=O)N2CCOC2CNC(=O)C(=O)NCCc2ccccc2OC)cc1 (centres unmarked) | 1.61% |
| COc1c2ccoc2cc2oc(C)cc(=O)c12 | 5.06% |
| O=C(Cn1cc(/C=N/NC(=O)c2cccc(C(F)(F)F)c2)c2ccccc21)Nc1ccc(F)cc1 | -0.106% |
